# Measured values taken from US20160266136A1 (Stanford University, published 2016).
# Read-outs that look alike come from different tables or passages of the source.
# T1: mouse Gas6 (mouse, UniProt Q61592 46-674, limits assumed)
# T1 construct: Used both for the KinExA value against mouse Gas6 and for the endogenous Gas6 in the serum of the nude mice; also called Gas6 (in serum of mice)
# T1 sequence (looked up): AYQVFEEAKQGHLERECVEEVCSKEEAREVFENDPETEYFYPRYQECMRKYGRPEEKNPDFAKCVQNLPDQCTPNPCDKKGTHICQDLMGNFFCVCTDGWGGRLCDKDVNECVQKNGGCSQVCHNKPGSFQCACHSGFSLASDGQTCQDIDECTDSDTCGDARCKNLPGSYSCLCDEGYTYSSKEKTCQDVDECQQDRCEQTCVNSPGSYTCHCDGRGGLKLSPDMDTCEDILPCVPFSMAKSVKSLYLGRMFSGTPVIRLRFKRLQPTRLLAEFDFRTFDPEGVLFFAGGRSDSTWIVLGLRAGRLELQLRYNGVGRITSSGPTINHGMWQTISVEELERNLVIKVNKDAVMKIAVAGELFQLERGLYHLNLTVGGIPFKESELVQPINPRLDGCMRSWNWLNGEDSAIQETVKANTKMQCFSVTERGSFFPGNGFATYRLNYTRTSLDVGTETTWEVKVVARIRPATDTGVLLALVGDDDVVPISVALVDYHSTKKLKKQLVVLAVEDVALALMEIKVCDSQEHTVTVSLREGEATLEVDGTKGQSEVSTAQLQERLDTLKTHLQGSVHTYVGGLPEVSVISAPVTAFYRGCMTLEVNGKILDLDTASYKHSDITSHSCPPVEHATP
# T2: human Gas6 (growth arrest-specific 6) (human, UniProt Q14393 49-678, limits assumed)
# T2 construct: Bought from R&D Systems
# T2 sequence (looked up): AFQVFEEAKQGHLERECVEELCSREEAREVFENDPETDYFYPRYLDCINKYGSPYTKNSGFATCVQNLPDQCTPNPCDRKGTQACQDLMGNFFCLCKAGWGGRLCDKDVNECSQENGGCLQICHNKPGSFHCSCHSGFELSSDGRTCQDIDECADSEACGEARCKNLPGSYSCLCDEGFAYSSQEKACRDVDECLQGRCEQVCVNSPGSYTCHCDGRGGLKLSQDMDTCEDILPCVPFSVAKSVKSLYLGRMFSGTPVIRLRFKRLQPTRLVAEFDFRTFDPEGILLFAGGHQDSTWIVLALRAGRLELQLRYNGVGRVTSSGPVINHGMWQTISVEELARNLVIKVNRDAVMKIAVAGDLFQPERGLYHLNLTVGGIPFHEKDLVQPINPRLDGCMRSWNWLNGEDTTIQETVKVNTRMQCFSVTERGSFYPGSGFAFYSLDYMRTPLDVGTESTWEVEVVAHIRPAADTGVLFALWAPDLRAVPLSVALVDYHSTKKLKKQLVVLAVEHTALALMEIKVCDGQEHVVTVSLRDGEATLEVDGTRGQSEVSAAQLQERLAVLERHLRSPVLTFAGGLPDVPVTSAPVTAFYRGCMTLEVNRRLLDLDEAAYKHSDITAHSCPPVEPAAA
# Columns and labels:
# [1] = target: T1, mouse Gas6; test: KinExA
# [2] = target: T2, human Gas6 (growth arrest-specific 6); test: KinExA direct inject kinetics (Axl and Gas6 briefly mixed, not at equilibrium)
# [3] = target: T2, human Gas6 (growth arrest-specific 6); test: KinExA equilibrium titration, 500 pM Gas6 (heavy open diamonds)
# [4] = target: T2, human Gas6 (growth arrest-specific 6); test: KinExA equilibrium titration, 5 nM Gas6 (printed 5 nm; filled diamonds)
# [5] = target: T2, human Gas6 (growth arrest-specific 6); test: KinExA (koff calculated as Kd x kon)
# [6] = target: T2, human Gas6 (growth arrest-specific 6); test: KinExA direct inject
# [7] = target: T1, mouse Gas6; test: KinExA; column Kd(pM) mGas6
# [8] = target: T2, human Gas6 (growth arrest-specific 6); test: KinExA direct inject; remark: listed apart in the source
# [9] = target: T2, human Gas6 (growth arrest-specific 6); test: assay not named in Example 1
# [10] = target: T2, human Gas6 (growth arrest-specific 6); test: KinExA equilibrium titration, 50 pM Gas6 (light open diamonds)
# [11] = target: T2, human Gas6 (growth arrest-specific 6); test: KinExA (koff calculated as Kd x kon); remark: listed apart in the source
binder,measurement,setting,value
"wild-type Axl Fc (Fc fusion, Disulfide-linked dimer from HEK cells; also called (a) Wild-type; Full-length wild-type Fc fusion; not shown: Fc domain of a human IgG1) not shown",Kd,[1],~1 pM
same,IC50 (read off the curve),[2],~3000 pM
same,IC50 (read off the curve),[3],~40 pM
same,IC50 (read off the curve),[4],~300 pM
same,koff,[5],0.000242 s⁻¹
same,kon,[6],2.6e+07 M⁻¹ s⁻¹
same,Kd,[7],1.5 pM
same,kon,[8],2.6e+07 M⁻¹ s⁻¹
same,Kd,[9],9.2 pM
same,IC50 (read off the curve),[10],~10 pM
same,koff,[11],0.00024 s⁻¹
